The full ranking holds about 33,000 sequences; the median of “E-score (-0.5 to 0.5)” is about -0.011, and the highest 2% start at about 0.28. This is one part of the list.
target: T1, Gcr1 (UniProt P07261); test: PBM E-score (8-mer binding enrichment) (E-score (-0.5 to 0.5)); higher = stronger / more preferred TF binding; most listed sequences are background and not binding sites; conditions: protein concentration: 100 nM; construct: GST-full length
T1 sequence: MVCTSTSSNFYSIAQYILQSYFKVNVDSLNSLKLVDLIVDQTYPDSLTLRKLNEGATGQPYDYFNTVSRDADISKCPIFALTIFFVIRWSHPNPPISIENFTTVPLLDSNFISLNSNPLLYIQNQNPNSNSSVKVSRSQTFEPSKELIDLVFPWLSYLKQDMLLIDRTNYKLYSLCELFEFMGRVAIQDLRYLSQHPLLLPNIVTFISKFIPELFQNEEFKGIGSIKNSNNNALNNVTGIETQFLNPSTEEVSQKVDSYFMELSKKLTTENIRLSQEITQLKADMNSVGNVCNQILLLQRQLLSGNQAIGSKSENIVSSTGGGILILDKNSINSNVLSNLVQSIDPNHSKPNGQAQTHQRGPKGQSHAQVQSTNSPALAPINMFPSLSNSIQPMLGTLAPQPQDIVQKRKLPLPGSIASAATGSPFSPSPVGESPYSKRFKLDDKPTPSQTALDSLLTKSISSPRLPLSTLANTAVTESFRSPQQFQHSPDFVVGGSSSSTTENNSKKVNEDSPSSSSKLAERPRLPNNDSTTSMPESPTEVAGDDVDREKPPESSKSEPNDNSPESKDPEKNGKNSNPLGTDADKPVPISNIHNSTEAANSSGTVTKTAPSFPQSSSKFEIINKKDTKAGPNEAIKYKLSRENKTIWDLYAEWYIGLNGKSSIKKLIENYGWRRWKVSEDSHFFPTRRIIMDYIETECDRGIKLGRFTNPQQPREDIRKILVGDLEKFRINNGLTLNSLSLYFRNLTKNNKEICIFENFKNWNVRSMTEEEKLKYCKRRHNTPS
Experimental: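 Universal 'all 10-mer' protein binding microarrays (Agilent AMADID 015681) probed with GST-tagged S. cerevisiae TFs (full-length or DBD) made by in vitro transcription/translation (PURExpress), about 100-200 nM. Bound TF was detected with fluorescent anti-GST. Each ungapped 8-mer (which stands for itself and its reverse complement) is scored by the PBM enrichment score (E-score), a modified Wilcoxon-Mann-Whitney statistic from -0.5 to +0.5, computed with the Universal PBM Analysis Suite. Scale: above 0.35 generally sequence-specific binding.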

| Sequence | PBM E-score |
| --- | --- |
| TGGTCAAA | 0.0343 |
| CCAGCCCC | 0.0827 |
| AATTATGG | 0.239 |
| GTCGACAC | -0.012 |
| CATCGTAC | -0.0279 |
| TACGTAAA | -0.0139 |
| CACCTTAA | 0.0723 |
| GTGTTGGA | 0.121 |
| CGGGTCAA | -0.138 |
| TGTGAACA | -0.0798 |
| GAGAAGCA | 0.111 |
| CTAATAAA | 0.223 |
| AGGCGAAC | -0.219 |
| GACGCCCA | 0.427 |
| AACTAAGG | 0.0143 |
| AAGGCGTG | -0.0647 |
| GGCTTTGA | -0.296 |
| CGACCCTC | -0.122 |
| ACATCCCA | 0.0139 |
| CAATAGAC | 0.0628 |
| GAGAGGGA | -0.149 |
| ATCCCTAC | 0.0292 |
| AGCTAACA | -0.239 |
| AGGCCAAT | -0.142 |
| CCGTTAGG | 0.0609 |

| Sequence | PBM E-score |
| --- | --- |
| CAATCGTA | 0.115 |
| CACAGCGC | -0.0554 |
| GTCCTAAC | 0.0109 |
| ATCCAAAG | 0.189 |
| CGCCGCCG | 0.0906 |
| AAGGGGGG | -0.427 |
| ACTAGGGC | -0.149 |
| TACTGGAA | 0.446 |
| GACTCTAC | -0.0308 |
| CAGTACTG | 0.089 |
| ATGGATGC | 0.389 |
| ATTAACCG | 0.119 |
| CAATTTCA | 0.211 |
| AAAATACG | 0.0697 |
| CGGTCTAG | -0.167 |
| GGAGGGCA | -0.199 |
| CTTAGGGA | -0.0687 |
| ACTCGTCA | -0.125 |
| ACTCCATC | -0.073 |
| AGTGTCAG | -0.142 |
| AAGTTAGG | -0.0179 |
| CAGCACAC | -0.251 |
| ACAACAAG | 0.0442 |
| GTGTATCA | -0.0606 |
| GGACCCTA | 0.114 |

| Sequence | PBM E-score |
| --- | --- |
| GCTGCGGA | 0.201 |
| CGAGTAAC | -0.0385 |
| CCCCAACG | -0.0912 |
| ACTTCCCC | 0.0219 |
| TTCGACAA | -0.00344 |
| ACGTGCAT | -0.189 |
| CTAGCACA | -0.181 |
| ATATGGCA | -0.16 |
| CACCCACG | 0.154 |
| GCTGCCAA | 0.31 |
| GATGTTGC | 0.0171 |
| ACAGACTC | -0.182 |
| CCGTTTAA | 0.179 |
| AGTGTCTC | -0.0403 |
| AATCCTCG | 0.0219 |
| ACCAGTTA | 0.0951 |
| CGCTGTCA | -0.0403 |
| GTTCTTCA | 0.0436 |
| AAATCGTA | 0.0191 |
| GTGTGTGA | 0.0832 |
| ATGGCAAC | 0.21 |
| GAATGGTA | 0.105 |
| CACACAGG | 0.00475 |
| AAGATCGT | 0.131 |
| ATGGTAAA | -0.154 |

| Sequence | PBM E-score |
| --- | --- |
| CGGAATAA | -0.168 |
| CTTTTTAC | 0.19 |
| AGTTCTTG | -0.139 |
| CACTGCAC | -0.29 |
| CCCGGATC | 0.256 |
| TGCACAAA | 0.034 |
| AGCCATAC | 0.0935 |
| AAAGATCC | 0.172 |
| AGGTTCCG | 0.205 |
| CTCTTTTA | -0.169 |
| CAGGGTCG | -0.171 |
| CCAGAACC | 0.274 |
| CCAAAGCA | -0.0555 |
| AATTACCC | 0.107 |
| ATCCTTGC | -0.034 |
| AACCATTG | -0.0706 |
| GAAATGAA | 0.11 |
| CAGAATGA | 0.0651 |
| ACTACCTA | 0.0863 |
| GGTTTGCA | 0.0915 |
| AGCTTGGG | -0.116 |
| CGACGAAG | -0.219 |
| GTGTAGAA | -0.0005 |
| CTATAGAC | -0.109 |
| GCTCTGCC | -0.192 |

| Sequence | PBM E-score |
| --- | --- |
| CCCTAGCA | 0.0999 |
| CAGCGTCA | -0.0226 |
| CCAGGTCA | -0.0391 |
| AGCAAACA | 0.0357 |
| GGGTTAAC | 0.0316 |
| CATTGAGA | 0.11 |
| GGATTCCC | 0.418 |
| CATTGCGA | -0.0583 |
| AGTTCCTG | 0.0262 |
| CGTTCAAA | 0.097 |
| CCTCTTAC | 0.142 |
| TGGCTCAA | 0.0942 |
| AATCTGAT | 0.0293 |
| ACGACGGG | 0.00739 |
| CTCATGCC | -0.195 |
| AGCGAGAC | -0.0269 |
| CTTTTGTA | 0.198 |
| CTGCACCA | 0.0368 |
| CCAGGCAA | -0.0954 |
| CCTAGTAC | -0.0431 |
| GTGGTGAA | 0.0386 |
| TGCAACCA | 0.261 |
| CCTGGACA | 0.0432 |
| CACGGGCA | -0.0825 |
| ATTCCCCA | 0.11 |

| Sequence | PBM E-score |
| --- | --- |
| GGTTATCA | -0.0236 |
| AACTTTGT | -0.09 |
| CTTCTGGC | 0.144 |
| CAGTAACC | 0.133 |
| GGACCTAA | 0.0865 |
| CATTCACG | -0.209 |
| GGTGTGGA | 0.0228 |
| CGCCTTAA | 0.0432 |
| CGTGGAAG | 0.0771 |
| GGGGGACA | 0.0151 |
| CCCTTAAC | -0.212 |
| AGACCCTC | -0.115 |
| ATCACTTC | 0.101 |
| CGCCATGC | -0.179 |
| ATATAATA | 0.0837 |
| CACGCGTC | 0.176 |
| GGGTAACA | -0.155 |
| AGAGGTCA | -0.0765 |
| CGCCGTGA | -0.0716 |
| CACGGGGC | -0.0351 |
| CGTATTAG | 0.199 |
| TCTAGAGA | -0.102 |
| CAGTGATC | -0.0596 |
| CCATAATA | 0.112 |
| CCCTGAGG | -0.102 |

| Sequence | PBM E-score |
| --- | --- |
| AGATAGTC | -0.267 |
| AAAAGGTT | -0.037 |
| ATTCATCC | -0.0901 |
| GTTTCTTA | -0.0303 |
| CCCATCGC | -0.0707 |
| AGTGGCCG | 0.149 |
| CGTGACCC | -0.141 |
| AGATCGAA | -0.0692 |
| GGCTGAAA | 0.151 |
| CTCTCGCC | -0.0249 |
| GAATTACA | 0.181 |
| GCGGGAAA | 0.107 |
| ATGTCGGA | 0.159 |
| CCTTGGAG | -0.0157 |
| AACGATTG | -0.111 |
| AAATTGGA | 0.249 |
| ACCAGGTA | -0.0515 |
| AGGTAGTG | -0.0355 |
| ACCGTCCT | -0.196 |
| CAATGAGA | -0.137 |
| ACGGTTAT | -0.00278 |
| CCGTTGCG | -0.113 |
| CACACGTA | -0.173 |
| ATCCCTAA | -0.148 |
| CGGCCAAC | -0.171 |

| Sequence | PBM E-score |
| --- | --- |
| GCAGCGGC | 0.106 |
| AAAGCCGC | 0.0398 |
| GAGTGTGA | -0.181 |
| GAGAAACA | 0.0834 |
| CGGAGGGA | 0.0238 |
| GAGATGGA | -0.246 |
| CGCAAAGC | -0.125 |
| ACGAGGGA | -0.0629 |
| CTCCGAAA | 0.149 |
| ACCCATCT | -0.085 |
| CCACTTGC | 0.147 |
| ATCTCCGC | 0.118 |
| GGTATGTA | -0.0354 |
| CAAGAACA | 0.0624 |
| CGACTCGA | -0.0795 |
| AGGCTTAA | -0.249 |
| AAATGAAA | 0.065 |
| CGTCGGAA | -0.0149 |
| ACTCGCTC | -0.0405 |
| ATAGGCAA | -0.108 |
| ATGTTATA | 0.0737 |
| AGGAACCT | 0.38 |
| CTAGATGC | 0.224 |
| AGGATTCC | 0.373 |
| AGCTCTTA | -0.0244 |

| Sequence | PBM E-score |
| --- | --- |
| GGCCGCCA | 0.277 |
| CCATCTCC | -0.0122 |
| AGCCCATA | -0.0753 |
| GACTGTGA | -0.208 |
| GCCGGACA | -0.189 |
| ACGTCGGG | -0.197 |
| GCGCTCGA | -0.121 |
| TAATTCTA | 0.194 |
| CTCCTGGA | -0.0486 |
| ATCCAGTG | 0.255 |
| CCGCGTTA | -0.239 |
| CTGAGACA | -0.142 |
| TTAAGCAA | 0.0634 |
| AGTTTAAG | 0.208 |
| CTCAGGAA | -0.0301 |
| GATTAGGA | 0.169 |
| GGTGACAA | 0.0154 |
| TTCCTAAA | 0.36 |
| GCATCACC | -0.021 |

Source: the supplement of paper PMC3334620
